To fix the notation:
B1: chr8:116643852:116643953:-|3pUTR|ENSG00000147677|unk|total|mutant (ssRNA)
RNA: GGGAGUUCUACAGUCCGACGAUCUGUUGUGAAUGAGGAAUCCGGAAUCCGGAGAAUGGCCGUACAUUGGGAAAAACAUAUUUCCGUAAUUUUUAUAUUUUAAAGAUAAUCACAGAUUUUGCUGUUUGUGCAUCACCAAAAUCACAACAGAGGAUUGAGCAUCA
B2: chr2:159230815:159230918:+|CDS|ENSG00000115183|unk|total|mutant (ssRNA)
RNA: GGGAGUUCUACAGUCCGACGAUCAACCUGUUCUGUUUCUACCCUGAGUGCAAGUGUCCACAAUGGGGCACAAGUGAAGGAGCCCGAAGAAAGCAAGUGCCAAAUUCCAGUCCACUCUCAAGAGAACAGGAUAACUAAGACUGUCAACAGAGGAUUGAGCAUCA
B3: chr17:59607285:59607386:+|3pUTR|ENSG00000108406|unk|FALSE|unique (ssRNA)
RNA: GGGAGUUCUACAGUCCGACGAUCUAAAUCAAAGCUCAUCAGUUCCCAUAAAUGCAGUUGUCAAAGAAAAGAUUUGGUUGCCAUAGUCAUAAGCAAUGAUACAUGAAACCAAUGAAAGACAGUACAUGUAAUAAUAUUUUCCUCCAACAGAGGAUUGAGCAUCA
B4: chr12:85803847:85803948:-|3pUTR|ENSG00000198774|unk|total|mutant (ssRNA)
RNA: GGGAGUUCUACAGUCCGACGAUCCCAAACCCAUGUUCAUUCACUGAGUGAGGUACCGUGUGGGUUACAGAGAAAAUCAGUCACCGUGUUAUUUGUUUAUGUCCUAUCUACAAAAGUUGCAAUGAUGGAAUUUGGAACCCUUCUCAACAGAGGAUUGAGCAUCA
B5: ENSG00000180263:stop:overlap|stop_codon|ENSG00000180263|stop_codon|NA|stop_codon (ssRNA)
RNA: GGGAGUUCUACAGUCCGACGAUCCAGAGGAUGCUCAUUCGGCUCAGAAGUGGAUAGAAGCAUUUCAGGAAGGCACAAUAUUGUAGCAGUAUUGGUUUCAUCUCUUCUGUGAUUCCAAAGAGGUGGAAUUUCAUCAGAAUGGAGCAACAGAGGAUUGAGCAUCA
B6: chr13:20086215:20086316:+|3pUTR|ENSG00000121741|unk|total|mutant (ssRNA)
RNA: GGGAGUUCUACAGUCCGACGAUCUGGUUUCCGGAUACUUAACAAAUACAUUCAAAUUCUUUUUUUAUUAUUAUUUAUUUGAUCCGGUAUGUUUGUAACUUUUUACAUUACAGAAUAUGAAUGAGAAUGUGCCAUGUAUAAUUUCAACAGAGGAUUGAGCAUCA
B7: ENSG00000144224:stop:overlap|stop_codon|ENSG00000144224|stop_codon|NA|stop_codon (ssRNA)
RNA: GGGAGUUCUACAGUCCGACGAUCCUCAAGAUGAUGGUGAAGAUGAAAACAACACUUGGAAUGGAAAUUCCACUCAACAGAUGUAGUGUGACAAGUAUAAUAUGUGCAAUAAUCAUUGUUUCUCUUAUGAUUUAAUUCAACUAACAACAGAGGAUUGAGCAUCA
B8: chr8:6811200:6812339:-|CDS|ENSG00000275591|control|control|control (ssRNA)
RNA: GGGAGUUCUACAGUCCGACGAUCAUGUAGAGGCUUCUGCCCCAGUGCAGGCUUCCCUGGAAGAACCCUCAGUAUCUCAGAGCUAGAGGAGCCGCUGGAGCCCAAAAGGGAGCUAAGUCACCAUGCAGCUGUUGGUGUGUGGGUCAACAGAGGAUUGAGCAUCA
B9: chr7:27141837:27142085:-|CDS|ENSG00000106004|control|control|control (ssRNA)
RNA: GGGAGUUCUACAGUCCGACGAUCGGAGCUGGAGAAGGAGUUCCACUUCAACCGUUACCUGACCCGCAGAAGGAGGAUUGAAAUAGCACAUGCUCUUUGCCUCUCCGAGAGACAAAUUAAAAUCUGGUUCCAAAACCGGAGAAUCAACAGAGGAUUGAGCAUCA
B10: chrX:101413019:101413185:+|CDS|ENSG00000126945|unk|total|mutant (ssRNA)
RNA: GGGAGUUCUACAGUCCGACGAUCGGAGCUCUUCUUAAAUUCUACUGCAGGAACAAGUGGGGGUGCUUACGAUCACAGCUAUGCCGAACUUUUUUUGAAUUCUACAGCAGGGGCAAGUGGUGGCGCUUAUGGCCGCCAAAUGAUCAACAGAGGAUUGAGCAUCA
B11: chr5:134606522:134606623:-|3pUTR|ENSG00000152700|msi1_unk|total|mutant (ssRNA)
RNA: GGGAGUUCUACAGUCCGACGAUCAACUAUAAACCAUAUUUAAAAGCUCAUCAUGUUAAAUUUUUUAUGUACUUUUCUGGAACCCGUUUUUAAAUUUCCGAUUAUAUGUCCACCUAUCUUAAGUGUACAGUUAAUAAUCCGCUUCAACAGAGGAUUGAGCAUCA
B12: chr2:159433012:159433119:-|CDS|ENSG00000123636|unk|total|mutant (ssRNA)
RNA: GGGAGUUCUACAGUCCGACGAUCGCACUUACUACCAAAACUAAAAUGCAGAGCAAGAUUAAUGAAAACAUUGCUGCUGCAAGCCGCACCCCUUUUUCCUCACCUGUAAAUCUGAGUACAAGUGGGAGAAGAACCCCUGGCAAUCAACAGAGGAUUGAGCAUCA
B13: ENSG00000120539:stop:overlap|stop_codon|ENSG00000120539|stop_codon|NA|stop_codon (ssRNA)
RNA: GGGAGUUCUACAGUCCGACGAUCCCUCCUAUUUUGAAGCCAGGAAUACUGCUCAGCACCUGACUGUAUCUGGAUUUAGUCUGUAGCACAAAAAUUUUCCUUUUAGUCUAGCCUUGUGUUAUAGAAUGAACUUGCAUAAUUAUACAACAGAGGAUUGAGCAUCA
B14: chr4:41955281:41955382:+|3pUTR|ENSG00000109133|msi1|total|mutant (ssRNA)
RNA: GGGAGUUCUACAGUCCGACGAUCGCCGGGGGAGGAGUUGUGGGGGAAUAAUGUGCAUUUCAGUCUCAACGCACCGAUAAAUUCCGGGGAAUUGGAUGUAUUAUUCAACUUUGAUUUGGGUUGUAAAAUGUGUUAAAUCCUGUUCAACAGAGGAUUGAGCAUCA
B15: chr1:156243319:156244403:-|three_prime_utr|ENSG00000160781|control|control|control (ssRNA)
RNA: GGGAGUUCUACAGUCCGACGAUCACCAACAGGGGCUGAGGAGAGAGGGCACAGGAGAGAGGGCAGAGAAGAGGAGGGGUGUCUAGGGGGACUGGCAGAGUGUGAGAGGGACCGUGAGGGGGCUCUUGAUGGGAGUGGAAGAAGCAACAGAGGAUUGAGCAUCA
B16: chr6:52498635:52498743:-|3pUTR|ENSG00000065308|msi1|FALSE|unique (ssRNA)
RNA: GGGAGUUCUACAGUCCGACGAUCAAAGGGACACGGAUUGUGACAGUUUCACCCCAUUUGUUUCUAACCCCGCUGCCCAGGAUUAGGGUCUGUGGUGUGUUCUGUUUUGUUUUUGGUUUCUCCCUUGUGUCAGUUCUCUUCUGGCAACAGAGGAUUGAGCAUCA
B17: chr1:178849534:178851128:-|three_prime_utr|ENSG00000116194|control|control|control (ssRNA)
RNA: GGGAGUUCUACAGUCCGACGAUCCUACACAGAAAGUUUUUAAAAUGAAUUUUACCGUAACUAUAAAAGGGAACCUAUAAAUGUAGUUUCAUCUGUCGUCAAUUACUGCAGAAAAUUAUGUGUAUCCACAACCUAGUUAUUUUACAACAGAGGAUUGAGCAUCA
B18: chr1:13223334:13223905:-|CDS|ENSG00000279804|control|control|control (ssRNA)
RNA: GGGAGUUCUACAGUCCGACGAUCUCUUGAGCCCCUCCGAGCUCUGCUAGAGAAAGUUGCUGCCACUCUUCAGACCCUCUUCUUAGUGGACUGUGGGAUUGGGUACUCCAAACUCAGGGUCAUCCUGCCUGCCCUGAGCCGCUGCAACAGAGGAUUGAGCAUCA
B19: chr8:18529670:18529771:-|3pUTR|ENSG00000156011|msi1|total|mutant (ssRNA)
RNA: GGGAGUUCUACAGUCCGACGAUCUAAAGCCAUGGAGUUUAUAAAGCCAAGUAACCAUUUGAUAUGGAUAAUAAUAUCUACUCCCGAGAGAGUAUAUAUAUGCACAUUGAUUUUUAAUGCUGUUAAGAUACUUUUGUAAAACUGCAACAGAGGAUUGAGCAUCA
B20: chr2:101892430:101892531:+|3pUTR|ENSG00000071054|msi1|FALSE|unique (ssRNA)
RNA: GGGAGUUCUACAGUCCGACGAUCCCAUUAGAGGUUGAUGGGGCAACUGCAGCCCAUGACACAAGAUCUCAUUGUUCUCGAUGUAGAGGGGUUGGUAGCAGACAGGUGGUUACAUUAGAAUAGUCACACAAACUGUUCAGUGUUCAACAGAGGAUUGAGCAUCA
B21: chr4:112276399:112276500:-|3pUTR|ENSG00000145365|unk|total|mutant (ssRNA)
RNA: GGGAGUUCUACAGUCCGACGAUCUUAUUCCCUGUGAUGCCCAGAGUAAUGGCCCAUCCAAAGAUGUCCAGAUGUCCAUGUGCCCGUCUCCAGAACUUGUAACUGUGUUGUUAUGUGGCAAAGGGGAAUGAAGGCUGCAGAUGGCAACAGAGGAUUGAGCAUCA
B22: chr1:204551843:204551944:+|3pUTR|ENSG00000198625|unk|total|mutant (ssRNA)
RNA: GGGAGUUCUACAGUCCGACGAUCAGUGUUCCUGGAAUCUCUAUGCAAGUUUUAUACAGAACAUACUUUUGGAAUCCUUGCCCCCGACAGGGGUGUCCAAUCUUUUGGCUUCCCUGGUCCACAAUGGAAGAAGAAUUGUCUUGGCAACAGAGGAUUGAGCAUCA

The other results are listed elsewhere or left out.

The target in this test is MSI1 full-length (mouse, UniProt Q61474 1-362). The test can be described thus: nsRBNS (natural sequence RNA bind-n-seq); RBNS binding buffer (assumed for nsRBNS): 25 mM Tris pH 7.5, 150 mM KCl, 3 mM MgCl2, 0.01% Triton X-100, 500 ug/ml BSA, 20 U/ml SUPERase-In, 4 C; UNK is unkempt and MSI1 is Musashi-1; names of the RNAs are library labels; protein concentration not given here; high values mean tight binding.
UniProt Q61474, sequence (Q61474 whole entry): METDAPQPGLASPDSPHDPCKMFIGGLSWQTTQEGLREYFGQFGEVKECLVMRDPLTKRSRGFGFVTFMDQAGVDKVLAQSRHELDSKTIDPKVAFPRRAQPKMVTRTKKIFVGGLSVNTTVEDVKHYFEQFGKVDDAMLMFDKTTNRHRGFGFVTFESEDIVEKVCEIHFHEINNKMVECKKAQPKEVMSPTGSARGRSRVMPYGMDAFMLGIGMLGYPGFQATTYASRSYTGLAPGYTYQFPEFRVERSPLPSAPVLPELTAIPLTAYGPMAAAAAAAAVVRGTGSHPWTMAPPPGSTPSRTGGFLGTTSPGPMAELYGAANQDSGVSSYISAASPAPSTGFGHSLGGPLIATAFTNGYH
Consider B1, for which the binding signal was determined as 0.427 enrichment R.

Molecule B2 gave a binding signal of 0.395 enrichment R.

Molecule B3 had a binding signal of 0.565 enrichment R. The value for B4 was 0.248 enrichment R.

For B5, the binding signal turned out to be 1.27 enrichment R.

As for B6, the binding signal was determined as 2.05 enrichment R. The value for B7 was 0.498 enrichment R; that for B8 was 0.573 enrichment R. The value for B9 was 0.366 enrichment R. In the case of B10 it was 0.539 enrichment R; in that of B11, 5.71 enrichment R.

As for B12, the binding signal worked out at 0.379 enrichment R.

Molecule B13 returned a binding signal of 0.952 enrichment R. In the case of B14 it was 0.597 enrichment R. In the case of B15 it was 0.665 enrichment R. In the case of B16 it was 0.442 enrichment R; in that of B17, 4.06 enrichment R; in that of B18, 0.637 enrichment R. As for B19, the binding signal worked out at 0.648 enrichment R. B20: the binding signal stood at 0.751 enrichment R. Regarding B21, the binding signal amounted to 0.394 enrichment R. The value for B22 was 0.211 enrichment R.

Values taken from publication PMC12136788.
